Measured values taken from the supplement of paper PMC4604168 (melanoma cell lines).
The list shows a part of the results. Most values come without repeats; read them as rough.

These compounds were tested on G361 (assay: cell count relative to DMSO control; melanoma cells; higher = more viable cells). Settings: library dose: standard library concentration; 72 h.
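Note: cells treated in 1,536-well plates, then fixed and DAPI-stained, with nuclei counted from automated high-throughput microscope images.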

Compound	cell count
C=CCNC1=C2C[C@@H](C)C[C@H](OC)[C@H](O)[C@@H](C)/C=C(\C)[C@H](OC(N)=O)[C@@H](OC)/C=C\C=C(/C)C(=O)NC(=CC1=O)C2=O [Tanespimycin] + NC(=O)Nc1cc(-c2cccc(F)c2)sc1C(=O)N[C@H]1CCCNC1 [AZD7762] (first compound 0.01 µM, partner dose 0.1 µM)	65.3%
CS(=O)(=O)CCNCc1ccc(-c2ccc3ncnc(Nc4ccc(OCc5cccc(F)c5)c(Cl)c4)c3c2)o1 [lapatinib] + C=C(c1ccc(C(=O)O)cc1)c1cc2c(cc1C)C(C)(C)CCC2(C)C [Bexarotene] (first compound 4 µM, partner dose 10 µM)	43.6%
CN1CCN(c2ccc3nc(-c4c(N)c5c(F)cccc5[nH]c4=O)[nH]c3c2)CC1 [Dovitinib] + Cn1cncc1[C@@](N)(c1ccc(Cl)cc1)c1ccc2c(c1)c(-c1cccc(Cl)c1)cc(=O)n2C [tipifarnib] (first compound 0.5 µM, partner dose 0.05 µM)	40.5%
CS(=O)(=O)CCNCc1ccc(-c2ccc3ncnc(Nc4ccc(OCc5cccc(F)c5)c(Cl)c4)c3c2)o1 [lapatinib] + Cn1c(Nc2ccc(C(F)(F)F)cc2)nc2cc(Oc3ccnc(-c4ncc(C(F)(F)F)[nH]4)c3)ccc21 [CHIR265] (first compound 4 µM, partner dose 0.4 µM)	12.8%
CS(=O)(=O)CCNCc1ccc(-c2ccc3ncnc(Nc4ccc(OCc5cccc(F)c5)c(Cl)c4)c3c2)o1 [lapatinib] + O=C(O)c1ccc2c(c1)nc(Nc1cccc(Cl)c1)c1ccncc12 [CX4945] (first compound 4 µM, partner dose 2 µM)	22.1%
CNC(=O)c1cc(Oc2ccc(NC(=O)Nc3ccc(Cl)c(C(F)(F)F)c3)cc2)ccn1 [sorafenib] + COc1ccc2c(c1)CCC1C2CCC2(C)C(NCCCCCCN3C(=O)C=CC3=O)CCC12 [U73122] (first compound 2 µM, partner dose 2 µM)	59.8%
CNC(=O)c1cc(Oc2ccc(NC(=O)Nc3ccc(Cl)c(C(F)(F)F)c3)cc2)ccn1 [sorafenib] + c1cc(-c2cnn3cc(-c4ccc(OCCN5CCCCC5)cc4)cnc23)ccn1 [Dorsomorphin] (first compound 2 µM, partner dose 2 µM)	61.8%
C[C@@H](Oc1cc(-c2cnn(C3CCNCC3)c2)cnc1N)c1c(Cl)ccc(F)c1Cl [Crizotinib] + CC(C)CCN1c2nc(Nc3cc(F)c(O)c(F)c3)ncc2N(C)C(=O)C1C [BID1870] (first compound 1 µM, partner dose 1 µM)	72.5%
C[C@@H](Oc1cc(-c2cnn(C3CCNCC3)c2)cnc1N)c1c(Cl)ccc(F)c1Cl [Crizotinib] + O=C(O)c1ccc2c(c1)nc(Nc1cccc(Cl)c1)c1ccncc12 [CX4945] (first compound 1 µM, partner dose 2 µM)	61.6%
C[C@@H](Oc1cc(-c2cnn(C3CCNCC3)c2)cnc1N)c1c(Cl)ccc(F)c1Cl [Crizotinib] + CN(C)S(=O)(=O)c1ccc2c(c1)/C(=C/c1cc3c([nH]1)CCCC3)C(=O)N2 [SU6656] (first compound 1 µM, partner dose 2 µM)	51.4%
CNC(=O)c1cc(Oc2ccc(NC(=O)Nc3ccc(Cl)c(C(F)(F)F)c3)cc2)ccn1 [sorafenib] + CC(=O)c1c(C)c2cnc(Nc3ccc(N4CCNCC4)cn3)nc2n(C2CCCC2)c1=O [palbociclib] (first compound 2 µM, partner dose 0.2 µM)	75.4%
CNC(=O)c1cc(Oc2ccc(NC(=O)Nc3ccc(Cl)c(C(F)(F)F)c3)cc2)ccn1 [sorafenib] + C=CCn1c(=O)c2cnc(Nc3ccc(N4CCN(C)CC4)cc3)nc2n1-c1cccc(C(C)(C)O)n1 [MK1775] (first compound 2 µM, partner dose 0.1 µM)	83%
CN1CCN(c2ccc3nc(-c4c(N)c5c(F)cccc5[nH]c4=O)[nH]c3c2)CC1 [Dovitinib] + CN(NC(=O)CC(=O)NN(C)C(=S)c1ccccc1)C(=S)c1ccccc1 [STA4783] (first compound 0.5 µM, partner dose 0.03 µM)	28.9%
